According to the supplement of paper PMC12217912:
The other results are listed elsewhere or left out. The full chains were built here from the parent and the listed change. Values near 0.05 are background.

B1: TEV protease; numbered along this chain (parent)
chain: MGESLFKGPRDYNPISSSICHLTNESDGHTTSLYGIGFGPFIITNKHLFRRNNGTLVVQSLHGVFKVKDTTTLQQHLVDGRDMIIIRMPKDFPPFPQKLKFREPQREERICLVTTNFQTKSMSSMVSDTSCTFPSGDGIFWKHWIQTKDGQCGSPLVSTRDGFIVGIHSASNFTNTNNYFTSVPKNFMELLTNQEAQQWVSGWRLNADSVLWGGHKVFMVKPEEPFQPVKEATQL

Variants of: B1
Assay: raw area under fraction-flipped curve 0-4 h after induction (AUC4h, not background-subtracted), DNA-recorder readout of cleavage of the substrate (dimensionless); higher = more cleavage of the substrate by the protease variant
Settings: temperature: 34 °C; time window: 0-4 h after rhamnose induction
Protocol: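 In vivo DNA recorder in E. coli TOP10(DE3) ΔrhaA at 34 °C. Each TEVp single-site mutant (parent TEVp 0) is paired with a single-site variant of the 7-mer TEVs (canonical ENLYFQ|S). The substrate sits between flexible linkers in a Bxb1-sfGFP-TEVs-SsrA fusion, so cleavage stabilises Bxb1 and speeds flipping of a recombination array, read by NGS. The value is the raw area under the fraction-flipped curve over 0-4 h after rhamnose induction (AUC4h), with ≥20 reads per time point. It is not background-subtracted; inactive controls average about 0.047.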
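Also: Bxb1 expression induced with 0.2% (w/v) L-rhamnose at OD600 near 0.5, cultures sampled hourly, flipped fraction per protease–substrate barcode pair counted by paired-end Illumina sequencing.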

| Variant | area with substrate ENLCFQS | area with substrate ENLDFQS | area with substrate ENLEFQS | area with substrate ENLHFQS | area with substrate ENLKFQS | area with substrate ENLLFQS | area with substrate ENLNFQS | area with substrate ENLPFQS | area with substrate ENLQFQS | area with substrate ENLSFQS | area with substrate ENLFFQS | area with substrate ENLGFQS | area with substrate ENLIFQS | area with substrate ENLMFQS | area with substrate ENLRFQS | area with substrate ENLTFQS | area with substrate ENLWFQS | area with substrate ENLVFQS |
| --- | --- | --- | --- | --- | --- | --- | --- | --- | --- | --- | --- | --- | --- | --- | --- | --- | --- | --- |
| P155H | 0.0578 | 0.0573 | 0.0495 | 0.0279 | 0.0492 | 0.0644 | 0.0611 | 0.0444 | 0.037 | 0.049 |  |  |  |  |  |  |  |  |
| D161Y | 0.063 | 0.0582 | 0.0488 | 0.0515 | 0.0569 | 0.0569 | 0.0586 | 0.05 |  | 0.0641 | 0.0659 | 0.0702 | 0.0729 | 0.0977 | 0.0613 |  |  |  |
| G162S | 0.064 | 0.0587 |  | 0.0853 |  | 0.0699 |  | 0.069 |  | 0.0563 | 0.08 |  |  |  |  | 0.0639 | 0.0757 |  |
| I164M | 0.0649 | 0.0645 | 0.0629 | 0.0537 | 0.067 | 0.0704 | 0.0573 | 0.0631 | 0.0546 | 0.0525 | 0.0675 |  |  | 0.0539 | 0.0635 |  | 0.0618 | 0.0741 |
| I164N | 0.0558 | 0.0569 | 0.0521 | 0.0495 |  |  | 0.0592 |  | 0.0589 | 0.0535 | 0.0483 |  |  |  |  |  | 0.053 |  |
| I167Y | 0.0635 | 0.057 | 0.0681 | 0.0577 |  | 0.0666 | 0.0729 | 0.0597 | 0.0546 | 0.072 | 0.0471 |  | 0.0738 | 0.0556 | 0.0586 | 0.0456 |  | 0.0629 |
| N172E | 0.0635 |  | 0.0667 |  |  |  |  | 0.0524 |  |  | 0.0781 | 0.0707 |  |  |  |  |  |  |
| F173M | 0.104 | 0.0704 | 0.08 |  | 0.0809 |  | 0.0677 |  | 0.0638 |  | 0.0953 |  |  |  |  |  |  |  |
| T174P | 0.0503 |  |  |  |  |  | 0.0621 | 0.0524 | 0.0563 |  | 0.0808 |  | 0.0788 |  | 0.0696 |  |  |  |
| T176A | 0.0676 |  |  | 0.0551 |  |  | 0.0854 |  | 0.0759 | 0.0635 | 0.0464 |  | 0.0606 | 0.0591 | 0.0589 |  | 0.0553 |  |
| F180E | 0.0444 | 0.054 |  | 0.0611 |  |  |  |  |  |  |  |  |  |  |  |  |  |  |
| L191M | 0.071 | 0.0676 | 0.0658 | 0.0691 | 0.0796 | 0.0672 | 0.0645 | 0.0587 | 0.077 | 0.0611 | 0.0752 | 0.0533 | 0.0687 | 0.0942 | 0.0738 |  | 0.0691 | 0.0766 |
| Q198C | 0.071 | 0.0618 | 0.0567 |  | 0.0777 | 0.0752 | 0.0594 | 0.0649 | 0.0706 | 0.0532 | 0.0639 |  | 0.0859 |  | 0.0765 | 0.0575 | 0.0688 | 0.0765 |
| W199C | 0.0729 | 0.0667 | 0.054 | 0.0608 | 0.0505 |  | 0.0582 | 0.0628 | 0.0545 |  | 0.0775 | 0.0603 |  |  |  |  |  | 0.0552 |
| M219I | 0.0662 | 0.0515 | 0.0546 | 0.0717 |  | 0.0506 | 0.0638 | 0.0541 | 0.0724 | 0.0565 | 0.071 |  |  | 0.0671 |  |  |  |  |
| M219Y | 0.0465 | 0.0639 |  |  | 0.0886 |  |  | 0.0622 |  |  | 0.0998 |  |  | 0.0981 | 0.0741 |  |  |  |

| Variant | area with substrate ENLCFQS | area with substrate ENLDFQS | area with substrate ENLEFQS | area with substrate ENLHFQS | area with substrate ENLKFQS | area with substrate ENLLFQS | area with substrate ENLNFQS | area with substrate ENLPFQS | area with substrate ENLQFQS | area with substrate ENLSFQS | area with substrate ENLFFQS | area with substrate ENLGFQS | area with substrate ENLIFQS | area with substrate ENLMFQS | area with substrate ENLRFQS | area with substrate ENLTFQS | area with substrate ENLWFQS | area with substrate ENLVFQS |
| --- | --- | --- | --- | --- | --- | --- | --- | --- | --- | --- | --- | --- | --- | --- | --- | --- | --- | --- |
| V220C | 0.0542 | 0.0693 | 0.0684 |  | 0.0835 | 0.0688 | 0.0582 |  | 0.0892 | 0.0585 | 0.101 | 0.0664 | 0.0825 | 0.0855 | 0.145 |  | 0.0674 |  |
| E223M | 0.0921 | 0.0575 |  | 0.0713 | 0.0728 |  | 0.0617 | 0.0593 |  |  | 0.0736 | 0.0807 | 0.0571 | 0.0474 | 0.0436 |  | 0.0696 |  |
| P225V | 0.0804 | 0.0628 | 0.0576 |  | 0.0815 |  |  | 0.0651 |  | 0.0654 | 0.0885 |  | 0.0826 | 0.0714 |  |  | 0.0473 |  |
| T233N | 0.0802 | 0.0596 | 0.0564 | 0.0732 | 0.0777 | 0.0797 | 0.0672 | 0.0455 |  | 0.0645 | 0.115 | 0.0743 |  |  | 0.0642 |  | 0.0577 |  |
| S4T |  | 0.0799 | 0.0714 | 0.0798 | 0.0364 | 0.0796 | 0.0646 | 0.0465 | 0.0668 | 0.0492 | 0.112 |  |  |  |  |  | 0.0732 |  |
| F6Q |  | 0.102 | 0.0924 | 0.0504 | 0.0688 | 0.0683 | 0.0702 | 0.0644 |  | 0.0589 | 0.088 |  | 0.0979 | 0.085 | 0.0715 |  |  | 0.0683 |
| D11G |  | 0.062 | 0.0628 | 0.063 | 0.0763 | 0.0678 | 0.0678 | 0.0486 | 0.0798 | 0.0747 | 0.0843 |  |  | 0.0775 | 0.0895 |  | 0.0742 | 0.0804 |
| H21R |  | 0.0588 | 0.0477 | 0.065 | 0.0728 |  | 0.0626 | 0.0528 | 0.0986 | 0.075 | 0.0805 |  | 0.0839 | 0.077 | 0.0688 |  |  | 0.097 |
| H29S |  | 0.0748 | 0.0662 | 0.0736 | 0.078 | 0.0704 |  | 0.0509 | 0.0721 | 0.0571 | 0.0897 | 0.0693 | 0.0831 |  | 0.0775 |  | 0.0696 |  |
| H29V |  | 0.0593 |  | 0.0758 | 0.0736 | 0.0654 |  | 0.0549 |  | 0.0655 | 0.0896 |  |  |  | 0.0719 |  |  | 0.0849 |
| T30N |  | 0.0555 |  | 0.0714 | 0.0716 |  | 0.0728 | 0.0557 | 0.0643 | 0.0611 | 0.0692 |  |  | 0.067 | 0.0634 |  | 0.0607 | 0.0691 |
| T31K |  | 0.0551 | 0.0563 |  | 0.06 |  | 0.0604 | 0.062 |  |  | 0.0518 |  | 0.0676 | 0.0614 |  | 0.0561 | 0.0587 |  |
| F38G |  | 0.0352 |  |  |  | 0.0492 |  |  | 0.0456 |  |  |  |  |  | 0.0387 |  |  |  |
| T44G |  | 0.059 |  | 0.0532 | 0.0635 | 0.0406 | 0.0531 | 0.0488 | 0.0503 | 0.053 | 0.0688 | 0.0539 | 0.056 | 0.0565 |  |  | 0.0973 | 0.0775 |
| K46V |  | 0.0683 |  | 0.0628 | 0.0546 | 0.075 | 0.0622 | 0.05 |  | 0.0628 | 0.0665 | 0.051 |  |  | 0.0606 |  |  | 0.0635 |
